In PubChem BioAssay AID1460 (National Center for Advancing Translational Sciences (NCATS), 2008):
Values joined by “and” are separate entries in the source; they are usually repeats but may differ in a detail not shown here. Equal values may be shown once. The campaign covered roughly 270,000 compounds. About 5,800 (2.1%) were called active. This list was built around the results that the source calls inconclusive (neither active nor inactive); the mix of calls is not that of the screen. Calls follow the shape of the dose curve; as a rule, active = well fitted inhibition curve with a large enough effect; inconclusive = small, poorly fitted or top-dose-only effect; inactive = flat fitted curve, though single readings scatter. Potencies of inconclusive entries are doubtful fits and often do not repeat.

Each compound was assayed against Microtubule-associated protein tau (Homo sapiens) (UniProt P10636) (assay: qHTS for Inhibitors of Tau Fibril Formation, Thioflavin T Binding). Settings: recombinant tau K18 P301L (four-repeat tau fragment), heparin-induced fibrillization, ThT fluorescence; series mostly up to 57.4 µM.
In short: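 Tau K18 P301L fragment (15 uM unlabeled plus 0.24 uM Alexa 594-labeled) in 100 mM sodium acetate pH 7 with compound, fibrillization induced by 20 uM heparin for 6 hr at 37 C. Thioflavin T (30 uM) added, fluorescence read after 1 hr (ex 450, em 510 nm).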
% is scaled to controls: 0 for no effect and ±100 for the full control effect; potency is read from the fitted curve at half-maximal effect; tags tell the direction and shape of the fitted curve.
Also: nearly all actives have a fitted effect of over 55% in size.

UniProt P10636, sequence (P10636 whole entry, looked up, the tested form may be a part): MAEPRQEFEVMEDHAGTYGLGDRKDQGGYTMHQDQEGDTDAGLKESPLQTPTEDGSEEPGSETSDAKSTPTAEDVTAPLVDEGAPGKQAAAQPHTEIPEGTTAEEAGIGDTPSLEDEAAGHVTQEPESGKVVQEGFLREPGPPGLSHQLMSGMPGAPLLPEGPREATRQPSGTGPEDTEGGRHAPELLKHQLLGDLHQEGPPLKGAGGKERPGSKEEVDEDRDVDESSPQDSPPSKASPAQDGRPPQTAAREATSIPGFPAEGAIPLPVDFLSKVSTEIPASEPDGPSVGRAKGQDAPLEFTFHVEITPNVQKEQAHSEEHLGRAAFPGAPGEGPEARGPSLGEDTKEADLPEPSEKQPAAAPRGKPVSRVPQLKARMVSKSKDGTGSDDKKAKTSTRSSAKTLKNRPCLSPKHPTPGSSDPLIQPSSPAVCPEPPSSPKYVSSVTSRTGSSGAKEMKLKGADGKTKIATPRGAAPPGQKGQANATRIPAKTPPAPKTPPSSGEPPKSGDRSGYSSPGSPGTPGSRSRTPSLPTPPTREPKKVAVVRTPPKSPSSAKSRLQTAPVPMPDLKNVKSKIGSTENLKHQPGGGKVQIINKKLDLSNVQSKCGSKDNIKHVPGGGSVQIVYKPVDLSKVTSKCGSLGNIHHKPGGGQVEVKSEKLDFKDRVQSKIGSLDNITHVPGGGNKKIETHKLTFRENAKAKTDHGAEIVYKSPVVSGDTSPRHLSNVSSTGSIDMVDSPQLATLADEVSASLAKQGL

Q: Which Potency does the source give for `Cc1ccc(-c2nc(Nc3ccccc3)n[nH]2)cc1` here?
A: inconclusive: 8.91 µM [inhibitor, partial curve]

Q: With `Cc1cc(C(=O)COc2ccccc2[N+](=O)[O-])c(C)n1C1CC1` as the compound, how does the Potency read?
A: inconclusive: 17.8 µM [inhibitor, partial curve]

Q: How did the Potency turn out when `COC/C=C/C1=CC2=CC(=O)C(C)(OC(=O)c3cnc4ccccc4n3)C(=O)C2=CN1C(CO)CO` (configuration not stated) was run?
A: inconclusive: 22.4 µM [inhibitor, partial curve, poor fit]

Q: For `CCOC(=O)c1cnc2ccc(OCC)cc2c1N1CCN(c2cccc(Cl)c2)CC1`, which Potency is on record?
A: inconclusive: 12.6 µM [inhibitor, single point]

Q: For `C=CCn1c(SCC(=O)NCCOC)nc2scc(-c3ccco3)c2c1=O`, which Potency is on record?
A: active: 22.4 µM

Q: How did the Potency turn out when `CCOC(=O)C1CCCN(c2cc(NCCCO)c([N+](=O)[O-])c3nonc23)C1` (configuration not stated) was run?
A: inactive

Q: With `O=C1CC(c2ccccc2)Cc2[nH]c(=O)c(-c3nc(-c4ccc(F)cc4)cs3)cc21` (configuration not stated) as the compound, how does the Potency read?
A: inconclusive: 15.8 µM [inhibitor, partial curve, poor fit]

Q: Which Potency does the source give for `Cc1cc(N2CCN(C(=O)c3ccco3)CC2)n2ncc(-c3ccccc3)c2n1` here?
A: inconclusive: 14.1 µM [inhibitor, partial curve]

Q: With `COc1ccc2[nH]c3c(NCc4ccco4)ncnc3c2c1` as the compound, how does the Potency read?
A: inconclusive: 17.8 µM [inhibitor, partial curve]

Q: How did the Potency turn out when `CN1Cc2c(C(=O)OC(C)(C)C)ncn2-c2ccsc2C1=O` was run?
A: inactive

Q: For `COc1ccc(CN(CCC(c2ccc(F)cc2)C2CCOC(C)(C)C2)C(=O)c2ccco2)cc1` (configuration not stated), which Potency is on record?
A: inconclusive: 11.2 µM [inhibitor, partial curve]

Q: `COc1ccc(NC(=O)c2sc3nc[nH]c(=O)c3c2C)cc1` was tested. Which Potency did it give?
A: inconclusive: 14.1 µM [inhibitor, partial curve]

Q: How did the Potency turn out when `COc1cc(C(=O)Sc2ccc(C)cc2)cc(OC)c1OC` was run?
A: inconclusive: 12.6 µM [inhibitor, partial curve]

Q: How did the Potency turn out when `CCN(CC)c1nc2ccccc2nc1C(C#N)C(=O)NCCCOC` (configuration not stated) was run?
A: inconclusive: 28.2 µM [inhibitor, partial curve]

Q: `COc1ccc(OC)c(/C=N/n2c(-c3n[nH]c4c3CCC4)n[nH]c2=S)c1` was tested. Which Potency did it give?
A: inconclusive: 28.2 µM [inhibitor, partial curve]

Q: For `COC(=O)[C@@]1(Cc2ccc(F)cc2)[C@H]2c3cc(C(=O)N(C)C)n(Cc4ccc(OC)c(OC)c4)c3C[C@H]2CN1C(=O)c1ccccc1`, which Potency is on record?
A: inconclusive: 44.7 µM [inhibitor, single point] and inconclusive: 17.8 µM [inhibitor, partial curve]

Q: `O=C(Oc1ccc(Br)cc1C(=S)N1CCCC1)c1ccccc1F` was tested. Which Potency did it give?
A: inconclusive: 39.8 µM [inhibitor, single point]

Q: How did the Potency turn out when `Cc1cc(Nc2ccc(O)cc2)n2c(nc3ccccc32)c1C#N` was run?
A: inconclusive: 3.16 µM [inhibitor, partial curve]

Q: `COc1cc(/C=C2/CCCC(C(=O)C(F)(F)F)=C2O)ccc1O` was tested. Which Potency did it give?
A: inconclusive: 25.1 µM [inhibitor, partial curve]

Q: `COc1ccc(-c2nnc3ccc(SCC(=O)N4CCCC4)nn23)cc1` was tested. Which Potency did it give?
A: inactive

Q: Which Potency does the source give for `O=c1c2ccccc2nc(COc2ccccc2)n1/N=C/c1c[nH]c2ccccc12` here?
A: inactive

Q: With `CCN(CC)Cc1ccc(Nc2ccnc3cc(Cl)ccc23)cc1O` as the compound, how does the Potency read?
A: inactive

Q: For `Cc1cc([N+](=O)[O-])nn1CC(=O)NCc1nc2ccccc2[nH]1`, which Potency is on record?
A: inconclusive: 20 µM [inhibitor, single point]

Q: For `COc1ccc2c(c1OC)C(=O)OC2Nc1nc(-c2cc3cc([N+](=O)[O-])ccc3oc2=O)cs1` (configuration not stated), which Potency is on record?
A: inconclusive: 12.6 µM [inhibitor, partial curve]

Q: With `O=C1c2ccccc2C(=O)C12OC2c1cccc2ccccc12` (configuration not stated) as the compound, how does the Potency read?
A: active: 2.51 µM

Q: For `COc1cccc(C2=NS(=O)(=O)N(C)C(C(=O)Nc3cccc(O)c3)=C2)c1`, which Potency is on record?
A: inactive

Q: For `Cc1cccc(Cc2c(C)nc3c(C(=O)NCc4ccco4)cnn3c2C)c1`, which Potency is on record?
A: inconclusive: 28.2 µM [inhibitor, partial curve]

Q: With `CCN1CCN(C(c2cccc(Cl)c2)c2c(O)cc(C)n(CCOC)c2=O)CC1` (configuration not stated) as the compound, how does the Potency read?
A: inconclusive: 5.01 µM [inhibitor, full curve, poor fit]

Q: `CCOC(=O)c1cc2cc3ccccc3cc2[nH]1` was tested. Which Potency did it give?
A: inconclusive: 2.51 µM [inhibitor, full curve]

Q: For `O=[N+]([O-])c1ccc(Nc2nc(NCCO)nc(N3CCCC3)n2)cc1`, which Potency is on record?
A: inconclusive: 25.1 µM [inhibitor, single point]

Q: With `O=C(CCCN1C(=O)c2cccc3cccc(c23)C1=O)N1CCN(c2ncccn2)CC1` as the compound, how does the Potency read?
A: inconclusive: 1.41 µM [inhibitor, full curve]

Q: With `CCOC(=O)C1(C)C=C(Nc2cccc(OC)c2)C(=O)N1c1ccccc1` (configuration not stated) as the compound, how does the Potency read?
A: inconclusive: 20 µM [inhibitor, partial curve, poor fit]

Q: Which Potency does the source give for `O=C(Cc1c[nH]c2ccccc12)N1CCc2ccccc21` here?
A: inconclusive: 14.1 µM [inhibitor, partial curve, poor fit]

Q: How did the Potency turn out when `O=[N+]([O-])c1cccc(/C=N\N2CCN(c3ccc(Cl)cc3)CC2)c1` was run?
A: inconclusive: 2 µM [inhibitor, full curve]

Q: `Brc1ccc(C2=Nc3cccc4cccc(c34)N2)o1` was tested. Which Potency did it give?
A: inconclusive: 12.6 µM [inhibitor, partial curve]

Q: How did the Potency turn out when `N#C/C(=C\c1ccc(O)c(O)c1)C(=O)Nc1ccccc1` was run?
A: active: 12.6 µM

Q: Which Potency does the source give for `COc1ccc(CCNc2nnc(Sc3nnnn3-c3ccccc3)s2)cc1OC` here?
A: inactive

Q: Which Potency does the source give for `COc1ccc([N+](=O)[O-])c2c1CCN2C(=O)CC[C@H](N)C(=O)O` here?
A: inactive

Q: With `O=C(O)c1cc([N+](=O)[O-])ccc1N1CCC(Cc2ccccc2)CC1` as the compound, how does the Potency read?
A: inconclusive: 31.6 µM [inhibitor, single point]

Q: For `CC(=O)c1ccc2cccc3c2c1N=CN3C`, which Potency is on record?
A: inactive

Q: With `CN1CCN(C(=O)c2ccc3ccccc3c2)CC1` as the compound, how does the Potency read?
A: inactive

Q: Which Potency does the source give for `O=C(NNc1nc(=O)c2cccnc2s1)c1ccccc1O` here?
A: inconclusive: 11.2 µM [inhibitor, partial curve]

Q: `COc1ccc(C(=O)NCc2ccc3c(c2)CCN3C(=O)c2ccc(Cl)cc2)c(OC)c1` was tested. Which Potency did it give?
A: inconclusive: 3.16 µM [inhibitor, partial curve]

Q: `CCn1c(O)c(C=Nc2ccccc2)n(-c2ccccc2)c1=S` was tested. Which Potency did it give?
A: inactive

Q: With `CO/N=C/C(=N\Nc1cc(OC)cc(OC)c1)C(=O)c1ccccc1` as the compound, how does the Potency read?
A: inconclusive: 11.2 µM [inhibitor, partial curve]

Q: With `O=C1Nc2ccccc2/C1=N\N=C\c1ccc(O)c(O)c1` as the compound, how does the Potency read?
A: active: 4.47 µM

Q: With `CCCOc1ccc(N2C(=O)CC(N3CCC(C(=O)OCC)CC3)C2=O)cc1` (configuration not stated) as the compound, how does the Potency read?
A: inactive

Q: For `Cc1cccc(CCNC(=O)CCc2c(C)nc3c(c(C)nn3-c3ccccc3)c2C)c1`, which Potency is on record?
A: inconclusive: 4.47 µM [inhibitor, full curve]

Q: Which Potency does the source give for `CC1Cc2ccccc2N1CC(=O)NC(c1ccccc1)c1ccccc1` (configuration not stated) here?
A: inactive

Q: How did the Potency turn out when `Cc1cc2cc3c(cc2nc1SCc1ccccn1)OCCO3` was run?
A: inactive

Q: With `C=CCC1(c2ccccc2)Oc2ccc(C)cc2-c2nc3cc(Cl)c(Cl)cc3nc21` (configuration not stated) as the compound, how does the activity, negative = inhibition read?
A: inactive: 5.2% [at 11.5 µM]

Q: With `CCOC(=O)c1cc2c(=O)n3ccccc3nc2n(C(C)C)c1=NC(=O)c1c(-c2c(F)cccc2Cl)noc1C` as the compound, how does the Potency read?
A: inconclusive: 35.5 µM [inhibitor, single point] and inconclusive: 17.8 µM [inhibitor, partial curve, poor fit]

Q: With `Cc1cc(C)c(S(=O)(=O)N2CCOC2CNC(=O)C(=O)NCCc2c[nH]c3ccccc23)c(C)c1` (configuration not stated) as the compound, how does the Potency read?
A: inconclusive: 8.91 µM [inhibitor, partial curve]

Q: `CCOC(=O)N1CCN(C(=O)CCSc2ccc(C)cc2)CC1` was tested. Which Potency did it give?
A: inconclusive: 28.2 µM [inhibitor, single point]

Q: `CCn1c(C)nc2cc(C(=O)OC(C(F)(F)C(F)F)C(F)(F)C(F)F)ccc21` was tested. Which Potency did it give?
A: inconclusive: 28.2 µM [inhibitor, single point]

Q: With `N#CC1=C(N)C(C#N)(C#N)C(c2cccnc2)C2CC(c3ccccc3)CC=C12` (configuration not stated) as the compound, how does the Potency read?
A: active: 25.1 µM

Q: `Cc1ccc(N(CC(=O)N2CCN(c3cccc(C)c3C)CC2)S(=O)(=O)c2c(C)nn(C)c2C)cc1` was tested. Which Potency did it give?
A: inconclusive: 3.55 µM [inhibitor, partial curve, poor fit]

Q: For `CC(=O)Nc1c(C)nn(-c2ccccc2)c1N1CCC(C(=O)NCc2cccc(F)c2)CC1`, which Potency is on record?
A: inactive

Q: With `COc1ccc(N2CCn3c2nc2c3c(=O)n(CCN3CCOCC3)c(=O)n2C)cc1` as the compound, how does the Potency read?
A: inactive

Q: For `Cc1c(Cl)cccc1Nc1ccccc1C(=O)O`, which Potency is on record?
A: inactive and inconclusive: 35.5 µM [inhibitor, partial curve]

Q: Which Potency does the source give for `CCCc1nn(C)c(C(=O)Nc2ccc(C(C)(C)C)cc2)c1Cl` here?
A: inconclusive: 28.2 µM [inhibitor, single point]

Q: How did the Potency turn out when `COc1ccc(/C=N/Nc2nc(-c3ccc(C)cc3)c(NC(C)=O)s2)cc1OC` was run?
A: inconclusive: 10 µM [inhibitor, partial curve]

Q: With `CC(C)OC(=O)C1CC(C)(O)C(=O)C(C(=O)OC(C)C)C1c1ccc([N+](=O)[O-])cc1` (configuration not stated) as the compound, how does the Potency read?
A: inactive

Q: `Nc1ccc(-c2nc3ccc(N)cc3s2)cc1` was tested. Which Potency did it give?
A: active: 11.2 µM

Q: With `CC(N)(C(=O)O)c1cccc(CC(=O)O)c1` (configuration not stated) as the compound, how does the Potency read?
A: inactive

Q: With `Cn1cc(-c2nc3ccccc3[nH]2)c2ccccc21` as the compound, how does the Potency read?
A: inconclusive: 20 µM [inhibitor, partial curve]

Q: Which Potency does the source give for `CCc1nnc(NC(=O)CSc2nc3ccccc3s2)s1` here?
A: inconclusive: 5.62 µM [inhibitor, partial curve, poor fit]
